The campaign covered roughly 340,000 compounds. About 6,900 (2%) were called active. Rule as the data show it: active = inhibition above about 30%; inactive = below that, where a call was filed. The list shows a part of the results, in another mix than the full data. Entries without a call were filed so in the source.
Molecular target: D(2) dopamine receptor (Homo sapiens) (UniProt P14416)
Assay: HTS Assay for Allosteric Antagonists of the Human D2 Dopamine Receptor: Primary Screen for Antagonists; also: 0% is about no effect
Conditions: HEK293 TREx D2 cells, calcium flux, dopamine EC80; at 10 µM; stronger effect = higher value
Summary of the method: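 Inhibition of EC80 dopamine-driven calcium flux, recorded kinetically, defines activity here; cells are a tetracycline-induced HEK293 T-REx line expressing force-coupled D2.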

UniProt P14416, sequence (P14416 whole entry, looked up): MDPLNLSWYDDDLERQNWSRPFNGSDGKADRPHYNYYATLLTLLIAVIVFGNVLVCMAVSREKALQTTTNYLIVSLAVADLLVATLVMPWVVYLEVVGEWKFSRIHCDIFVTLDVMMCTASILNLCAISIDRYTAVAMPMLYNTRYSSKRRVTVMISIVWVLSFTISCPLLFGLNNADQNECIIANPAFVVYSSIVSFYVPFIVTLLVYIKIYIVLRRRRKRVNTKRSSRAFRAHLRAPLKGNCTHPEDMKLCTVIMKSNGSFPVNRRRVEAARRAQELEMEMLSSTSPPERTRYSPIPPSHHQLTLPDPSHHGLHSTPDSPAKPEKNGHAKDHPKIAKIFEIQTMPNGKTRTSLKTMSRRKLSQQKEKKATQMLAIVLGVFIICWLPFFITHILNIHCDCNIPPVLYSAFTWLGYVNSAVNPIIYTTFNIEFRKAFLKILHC

Row | Structure (SMILES) | inhibition
1 | CCOC(=O)C1CCCN(c2nc3c(S(=O)(=O)c4ccc(C)c(C)c4)nnn3c3ccc(Cl)cc23)C1 (centres undefined) | 8.2%
2 | CCn1c(=O)c2sccc2n2c(CCC(=O)Nc3cc(C)cc(C)c3)nnc12 | 22.7%
3 | Cc1ccc(Cl)cc1N1CCN(c2ncnc3onc(C)c23)CC1 | -3.1%
4 | Cc1ccc(OCC(=O)Nc2ccc3nc(SCC(=O)N4CCc5ccccc54)sc3c2)cc1 | 3.42%
5 | Cc1cc(C)cc(OCC(=O)Nc2ccc(-c3nc4ccccc4o3)cc2)c1 | -13.4%
6 | CCC(=O)N1CCc2cc(S(=O)(=O)NC(C(=O)Nc3ccc(C(C)=O)cc3)C(C)C)ccc21 (centres undefined) | -2.38%
7 | COc1cc(N)c(Cl)cc1C(=O)N[C@@H]1CCN(CCCOc2ccc(F)cc2)C[C@@H]1OC | active: 76.6%
8 | CCOC(=O)N1CCC(NCCNC(=O)c2ccco2)CC1 | active: 38.2%
9 | CCC(=O)N1CCc2cc(Br)cc(S(=O)(=O)N3CCCC(C(=O)N(C)c4ccc(Br)cc4)C3)c21 (centres undefined) | -15%
10 | O=C(NCCc1ccccc1)c1cnn(-c2ccc(F)cc2)c1-n1cccc1 | 5.55%
11 | CCOC(=O)N1CCc2c(sc3c2c(=O)n(CCc2ccccc2)c(=O)n3Cc2c(F)cccc2Cl)C1 | -8.08%
12 | CCc1ccc(CNC(=O)CN2CCSc3ccccc32)cc1 | -12.6%
13 | Cc1ccc(NC(=O)C(=O)NCC2(c3ccccc3)CCCC2)cc1Cl | 5.35%
14 | Cc1ccc(NC(=O)CSc2nc3n[nH]c(C)c3c(=N)n2-c2cccc(C)c2)cc1 | 2.52%
15 | O=C(CN1C(=O)COc2ccc(S(=O)(=O)N3CCCCCC3)cc21)NCc1ccc(F)cc1 | 17.5%
16 | CCSc1ncc(Cl)c(C(=O)Nc2ccc(S(=O)(=O)N(C)c3ccccc3)cc2)n1 | 3.25%
17 | CCCSCCCNC(=O)c1ccc2nc(Cc3ccccc3)oc2c1 | -5.42%
18 | Cc1cc(Nc2cccc(Cl)c2)nc2ccc(NC(=O)c3cccnc3)cc12 | -13%
19 | COc1ccc(Nc2cc(C(=O)NCc3ccccc3OC)c3ccccc3n2)cc1 | -3.6%
20 | Cc1cc(OCC(=O)N(Cc2sccc2C)C2CCS(=O)(=O)C2)ccc1Cl (centres undefined) | 5.5%
21 | CCc1cccc(C)c1NC(=O)CSc1nnc(CC)n2c1cc1occc12 | -0.941%
22 | COc1ccc(CNC(=O)CN2C(=O)c3cccnc3Oc3ccc(C)cc32)cc1 | -0.449%
23 | Cc1cc(C)c2c(CC(=O)Nc3c(C(=O)Nc4ccc(Cl)cc4)oc4ccccc34)coc2c1 | 15%
24 | COc1ccc(N2CCN(c3oc(/C=C/c4cc(OC)c(OC)c(OC)c4)nc3C#N)CC2)cc1 | -2.69%

Row | Structure (SMILES) | inhibition
25 | Cc1[nH]c(=O)c(C#N)cc1-c1csc(-c2ccccc2)n1 | active: 38.7%
26 | COc1cc(C(=O)Nc2ccc3oc(-c4ccc(C)c(Br)c4)nc3c2)cc(OC)c1OC | -1.06%
27 | Cc1cc(C)cc(Oc2nc3c(c(=O)n(C)c(=O)n3C)n2Cc2ccc(F)cc2)c1 | 10.5%
28 | CCOC(=O)c1ccccc1NC(=O)N(C)CCc1c(C)nn(CC)c1C | 13%
29 | COc1ccc(F)cc1S(=O)(=O)NCCc1sc2nc(-c3ccc(F)cc3)nn2c1C | 0.353%
30 | CCCCCCSc1nsc(N)n1 | active: 51.1%
31 | CC1CN(C(=O)Nc2ccc(C(=O)NCc3cccc(F)c3)cc2)c2ccccc2S1 (centres undefined) | 8.89%
32 | O=C(Nc1ccccc1Cl)N1CCC(CN2CCCCC2)CC1 | -3.34%
33 | O=C(Nc1ccc(C(F)(F)F)cc1)C1CCCN(c2cnccn2)C1 (centres undefined) | -7.66%
34 | O=C(NC1CCN(Cc2ccccc2)CC1)c1cn(-c2ccccc2)nc1-c1cccnc1 | active: 74.7%
35 | O=c1c(S(=O)(=O)c2ccccc2)cn(Cc2ccccc2)c2cc(N3CCOCC3)c(F)cc12 | 7.27%
36 | CC(C(=O)NCc1ccccc1F)n1ccc2cc(S(=O)(=O)N3CCCC3)ccc21 (centres undefined) | 2.85%
37 | CCc1ccccc1NC(=O)Nc1cc(C(=O)NCc2ccc(C)cc2)ccc1N1CCCC1 | -5.57%
38 | CN1CCc2nc(SCCOc3ccccc3)c(C#N)cc2C1 | active: 30.9%
39 | CCOc1ccccc1NC(=O)c1c(NC(=O)c2cccc(C)c2)sc2c1CCCC2 | 1.16%
40 | COc1ccc(Br)cc1C(=O)Nc1nc2ccc(F)cc2s1 | 9.76%
41 | Cn1nc(-c2ccc(C(=O)Nc3ccc(F)cc3)cc2)c2ccccc2c1=O | -2.31%
42 | COCCCNC(=O)CCCCn1c(=O)c2ccccc2n(CC(=O)Nc2ccc(C)cc2C)c1=O | 3.42%
43 | COc1ccc2cc(-c3nc4ccc(C(=O)O)cc4[nH]3)c(=O)oc2c1 | 14.1%
44 | Cc1cccn2c(=O)c3cc(C#N)c(=O)n(-c4nnc(SCc5ccccc5F)s4)c3nc12 | 18.7%
45 | CC(C)c1ccc(S(=O)(=O)NCc2ccc3c(c2)CCN3C(=O)c2ccccc2)cc1 | -8.38%
46 | COc1ccc(CNC(=O)c2ccc3c(c2)nc2n3CCC(C)C2)c(OC)c1 (centres undefined) | 11%
47 | COCCNC(=O)CSc1nc2cc3c(cc2c(=O)n1CCCCCC(=O)NCc1ccc(OC)cc1)OCO3 | -8.27%
48 | CCOc1ccccc1NC(=O)Cn1nnc2sc(-c3ccccc3)cc2c1=O | 15.4%

Row | Structure (SMILES) | inhibition
49 | COc1ccc(Nc2ncc3c(n2)CCN(Cc2cc(Br)cs2)C3)c(OC)c1 | 1.78%
50 | COc1ccccc1NC(=O)c1cc2c(=O)oc3ccc(C)cc3c2s1 | 7.56%
51 | CCOC(=O)c1ccc(N2CCN(c3cc(C)ccc3C)CC2)c(NC(=O)Nc2ccccc2)c1 | -7.82%
52 | Cc1ccc(NC(=O)CSc2nc3c(oc4ccccc43)c(=O)n2-c2ccc(F)cc2)c(C)c1 | -7.33%
53 | CCCCOc1ccccc1C(=O)N(Cc1ccc(C)o1)C1CCS(=O)(=O)C1 (centres undefined) | 7.6%
54 | O=C(O)CSc1c2c(nc3cc(C(=O)Nc4ccc(F)c(Cl)c4)ccc13)CCC2 | 1.93%
55 | S=C(NCc1ccc2c(c1)OCO2)NC1CCN(Cc2ccccc2)CC1 | active: 103%
56 | N#C/C(=C\c1ccc(Cl)cc1)c1nc(-c2cc3ccccc3oc2=O)cs1 | -2.26%
57 | CCOC(=O)c1sc2cccc(F)c2c1S(=O)(=O)N1CCN(c2cccc(Cl)c2)CC1 | -17.2%
58 | CCCn1c2ccccc2c2cnn(CC(=O)N3CCC(C)CC3)c(=O)c21 | 8.42%
59 | CCc1ccc(CNC(=O)c2cnc3sc4cc(OC)ccc4n3c2=O)cc1 | -14.5%
60 | CCc1ccc(NC(=O)C(=O)NCCc2csc(-c3ccc(C(F)(F)F)cc3)n2)cc1 | 3.63%
61 | Cc1cc(C)c(NC(=O)Cn2c(=O)n(Cc3ccc4c(c3)OCO4)c(=O)c3ccc(C(=O)NC4CCCCC4)cc32)c(C)c1 | -7.72%
62 | O=C(NCc1ccccc1F)c1ccc(CN2CC(=O)N3CCCCC3C2=O)cc1 (centres undefined) | 2%
63 | CCOC(=O)c1[nH]c(C)c(CCC(=O)NCc2ccc(OCC)cc2)c1C | -3.95%
64 | Cc1ccc(NC(=O)c2c(C)oc3ccc(O)c(CN4CCCCCC4)c23)c(C)c1 | 10.1%
65 | CCCCOc1ccccc1N1CCN(CCCN2C(=O)C3CCCN3C2=O)CC1 (centres undefined) | active: 76.2%
66 | CC(C)OCCCNC(=O)c1cc2c(-c3ccc(Cl)cc3)nn(C)c2s1 | -6.23%
67 | COc1ccc2c(C)c(CC(=O)NCc3ccc(C)cc3)c(=O)oc2c1OC | -0.122%
68 | CCCCC(Sc1nc2cc3c(cc2c(=O)n1CCCC(=O)NCc1ccc(OC)cc1)OCO3)C(=O)OCC (centres undefined) | -9.26%
69 | COc1cc(NC(=O)C2CCCN(S(=O)(=O)c3ccc4c(c3)oc(=O)n4C)C2)c(C(=O)O)cc1OC (centres undefined) | -19.2%
70 | Cc1cccc(C)c1Nc1sc(C(=O)c2ccccc2)c(N)c1C(=O)Nc1ccc(F)cc1 | 3.4%
71 | COc1cccc(-c2ccc3c(N)c(C(=O)c4ccc(Cl)cc4)sc3n2)c1 | -10.3%
72 | CCC(C)NC(=O)Cn1ncc2c([nH]c3ccc(C)cc32)c1=O (centres undefined) | -18.3%

Row | Structure (SMILES) | inhibition
73 | O=C(Nc1nc2n(n1)C(c1ccccc1)C=C(c1ccccc1)N2)c1ccc(Cl)c([N+](=O)[O-])c1 (centres undefined) | 10.3%
74 | CCOC(=O)c1ccc(N2C(=O)c3n[nH]c(-c4cccs4)c3C2c2ccc(C(C)(C)C)cc2)cc1 (centres undefined) | -2.42%
75 | CCOc1ccccc1NC(=O)Cn1c(=O)n(Cc2ccccc2)c(=O)c2c(C)c(C)sc21 | -8.82%
76 | CCc1cccc(NC(=O)Cn2nc(-c3ccc(OC)cc3)ccc2=O)c1 | 7.22%
77 | O=C(NCCSCc1cccc(Cl)c1)C1CCN(S(=O)(=O)Cc2ccccc2)CC1 | -6.62%
78 | Cc1ccc(Cl)cc1NC(=O)CSc1ccc(C(=O)O)cn1 | 11.5%
79 | CCN(CC)c1ccc(NC(=O)c2cc(C)nc3c2c(C)nn3-c2cccc(F)c2)c(C)c1 | 0.292%
80 | Cc1ccc(CNC(=O)CCS(=O)(=O)c2ccc3c(c2)oc(=O)n3C)cc1 | active: 30.3%
81 | O=C1CC(c2ccccc2)Sc2nc(-c3ccc(F)cc3)nn21 (centres undefined) | -7.27%
82 | O=C(c1[nH]c2ccccc2c1Sc1ccc(Cl)cc1)N1CCCCC1 | 24.3%
83 | Cc1ccc(OCC(=O)OCc2cc(=O)n3nc(C4CCCCC4)sc3n2)cc1C | 9.35%
84 | COc1ccc(C(=O)Nc2cc(C(C)C)c(O)c(S(=O)(=O)c3ccc(Cl)cc3)c2C)cc1 | -3.35%
85 | O=C1CC(N2CCC(c3nc4ccccc4s3)CC2)C(=O)N1 (centres undefined) | active: 32.8%
86 | CCOc1ccccc1CNCc1c(C(=O)O)c(C)n(Cc2ccc(Cl)cc2)c1C | -28.4%
87 | CCN(Cc1ccccc1)Cc1c(O)ccc2c(=O)c(-c3ccccc3)c(C(F)(F)F)oc12 | 15.4%
88 | CCOc1cccc(CC(=O)N2CCc3c([nH]c4ccccc34)C2c2ccccc2)c1OCC (centres undefined) | -0.0766%
89 | CCn1nc(C)c2c(-c3ccccc3)cc(=O)n(C(C)C(=O)NCc3cccc(OC)c3)c21 (centres undefined) | 3.63%
90 | CCC1CCCCN1CCCNC(=O)c1ccc2c(c1)N(Cc1ccccc1)C(=O)c1ccccc1S2(=O)=O (centres undefined) | 22.5%
91 | CCN(CC)c1ccc(CN(C(=O)Cc2coc3ccc(C)cc23)C2CCS(=O)(=O)C2)cc1 (centres undefined) | -13.8%
92 | CCc1ccc(OCCCn2c(-c3ccc(Cl)cc3)nc3ccccc3c2=O)cc1 | 4.13%
93 | Cc1ccc(-c2nc3scc(CCNS(=O)(=O)c4ccc(F)c(C)c4)n3n2)cc1 | -24%
94 | COc1ccc(-c2nc3cc(C(C)C)ccc3o2)cc1NC(=O)COc1ccc(C)cc1C | -2.19%
